Paper PMC9119546
No constants are given. Whether binding was seen depends on the method and setting. For part of these data: Binding seen in cells or lysates may run through a third protein. Some binding calls cover weakened binding; strength is not graded here. For part of these data: Tags and fused reporters may be left off the sequences shown.

The chains behind the UniProt entries cited, without tags or fusion partners. Where a name states a change or a piece, a line headed by the entry shows the natural chain unless it says otherwise.
UniProt P61077: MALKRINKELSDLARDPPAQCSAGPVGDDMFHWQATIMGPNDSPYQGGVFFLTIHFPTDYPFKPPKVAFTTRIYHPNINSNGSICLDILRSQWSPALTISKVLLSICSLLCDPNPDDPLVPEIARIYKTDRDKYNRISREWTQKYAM
UniProt Q00987: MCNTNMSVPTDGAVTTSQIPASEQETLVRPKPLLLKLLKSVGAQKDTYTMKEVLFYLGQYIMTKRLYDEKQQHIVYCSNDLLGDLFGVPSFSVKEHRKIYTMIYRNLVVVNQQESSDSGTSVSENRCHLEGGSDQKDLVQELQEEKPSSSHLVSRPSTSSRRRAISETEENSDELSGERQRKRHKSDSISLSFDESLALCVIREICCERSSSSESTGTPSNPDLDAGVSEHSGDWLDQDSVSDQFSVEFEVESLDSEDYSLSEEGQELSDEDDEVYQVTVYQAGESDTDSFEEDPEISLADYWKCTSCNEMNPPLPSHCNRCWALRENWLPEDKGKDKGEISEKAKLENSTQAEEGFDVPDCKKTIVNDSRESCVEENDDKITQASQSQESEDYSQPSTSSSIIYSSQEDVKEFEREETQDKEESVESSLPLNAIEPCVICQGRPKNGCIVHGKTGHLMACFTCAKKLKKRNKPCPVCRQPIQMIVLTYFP
UniProt P23804: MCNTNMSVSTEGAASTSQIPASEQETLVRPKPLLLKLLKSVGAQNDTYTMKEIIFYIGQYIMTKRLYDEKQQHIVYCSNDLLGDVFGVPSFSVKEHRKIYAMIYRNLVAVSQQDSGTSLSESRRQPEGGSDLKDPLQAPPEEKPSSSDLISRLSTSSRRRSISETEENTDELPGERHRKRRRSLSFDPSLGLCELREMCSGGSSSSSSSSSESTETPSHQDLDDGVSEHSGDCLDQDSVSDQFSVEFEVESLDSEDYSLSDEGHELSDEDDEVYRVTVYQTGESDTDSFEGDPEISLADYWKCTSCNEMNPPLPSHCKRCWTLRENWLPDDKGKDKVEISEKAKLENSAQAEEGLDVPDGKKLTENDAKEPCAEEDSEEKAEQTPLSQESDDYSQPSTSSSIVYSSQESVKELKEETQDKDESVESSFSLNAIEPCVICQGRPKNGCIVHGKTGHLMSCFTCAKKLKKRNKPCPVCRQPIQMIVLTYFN

What was measured:
GST-UbcH5c [1] = biological target: GST-UbcH5c (UniProt P61077); test: pull-down; GST-UbcH5c (or GST) on glutathione beads, blocked with 3% BSA; 100, 500, 1000 ng recombinant human MDM2 or L468A; 20 mM HEPES pH 7.5, 10 mM NaCl, 1 mM DTT, 0.1% Triton X-100; 1 hour at 4°C; blot with 2A9, 4B11; both purified
GST-UbcH5c [2] = biological target: GST-UbcH5c (UniProt P61077); test: pull-down; 10 μg GST-UbcH5c (or GST) with cytosolic fraction (300 μg total protein) of 293T cells transfected with mouse MDM2 or MDM2L466A; 20 mM HEPES pH 7.5, 10 mM NaCl, 1 mM DTT, 0.1% Triton X-100; blot with 2A10; only the target purified
[3] = biological target: T1, FLAG-MDM4 expressed in p53/Mdm2/Mdm4 triple knockout MEFs (UniProt O15151); test: co-IP; 500 μg total lysate of p53/Mdm2/Mdm4 triple knockout MEFs co-transfected with FLAG-MDM4 and mouse MDM2 (WT, Y487A or L466A); anti-FLAG M2 beads, IgG as control; blot with 2A10 (MDM2) and 17914-1-AP (MDM4)
T1 sequence: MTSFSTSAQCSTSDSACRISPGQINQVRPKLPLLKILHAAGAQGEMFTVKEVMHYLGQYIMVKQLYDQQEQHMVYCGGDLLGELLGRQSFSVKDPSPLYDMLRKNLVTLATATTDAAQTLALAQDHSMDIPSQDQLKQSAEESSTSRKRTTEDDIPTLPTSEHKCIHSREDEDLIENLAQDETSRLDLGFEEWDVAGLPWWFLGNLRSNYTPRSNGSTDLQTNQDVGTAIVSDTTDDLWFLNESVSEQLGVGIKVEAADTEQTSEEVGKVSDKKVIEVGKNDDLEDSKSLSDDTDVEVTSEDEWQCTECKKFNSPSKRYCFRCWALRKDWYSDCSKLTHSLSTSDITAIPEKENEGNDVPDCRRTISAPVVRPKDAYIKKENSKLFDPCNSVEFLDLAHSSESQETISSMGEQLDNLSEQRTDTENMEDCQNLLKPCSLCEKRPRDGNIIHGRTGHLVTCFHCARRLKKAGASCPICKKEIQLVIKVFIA

| Substance | binding (GST-UbcH5c [2]) | binding [3] | also measured |
| --- | --- | --- | --- |
| human MDM2 L468A (HDM2^L468A), recombinant (from UniProt Q00987 1-491) | – | – | binding (GST-UbcH5c [1]): no binding (tested: 100 ng, 500 ng, 1000 ng) |
| mouse MDM2 (wild type) in cytosolic extract of transfected 293T cells (from UniProt P23804 1-489) | binds | – | – |
| mouse MDM2Y487A in p53/Mdm2/Mdm4 triple knockout MEFs (from UniProt P23804 1-489) | – | binds | – |

Continued, in another order:

| binding (GST-UbcH5c [2]) | binding [3] | Substance | also measured |
| --- | --- | --- | --- |
| – | binds | mouse MDM2 (wild type) in p53/Mdm2/Mdm4 triple knockout MEFs (from UniProt P23804 1-489) | – |
| no binding | – | mouse MDM2L466A in cytosolic extract of transfected 293T cells (from UniProt P23804 1-489) | – |
| – | binds | mouse MDM2L466A in p53/Mdm2/Mdm4 triple knockout MEFs (from UniProt P23804 1-489) | – |
